# Changes are numbered by the printed parent chain. No constants are given. Whether binding was seen depends on the method and setting. In cells and extracts the contact can be indirect. Some results given as binding are weak or reduced against the parent protein; the word gives no strength.
# Sequences of proteins named here, by UniProt entry; tags and fusion partners are left off.
# UniProt Q9Y294: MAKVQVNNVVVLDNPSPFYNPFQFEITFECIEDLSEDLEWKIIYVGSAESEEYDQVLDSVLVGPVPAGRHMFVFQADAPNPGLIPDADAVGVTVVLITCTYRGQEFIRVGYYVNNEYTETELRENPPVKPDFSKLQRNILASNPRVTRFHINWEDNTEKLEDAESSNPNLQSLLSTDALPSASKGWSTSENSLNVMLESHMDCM
# UniProt Q9NVP2: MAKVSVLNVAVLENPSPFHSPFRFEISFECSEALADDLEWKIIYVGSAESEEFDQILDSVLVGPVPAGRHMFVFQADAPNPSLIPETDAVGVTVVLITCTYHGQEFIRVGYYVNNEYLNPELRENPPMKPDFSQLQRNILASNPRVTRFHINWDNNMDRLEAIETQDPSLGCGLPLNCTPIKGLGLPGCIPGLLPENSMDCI
# Assays:
# [1] = target: T1, Strep-CDAN1 HMHA1* (R541A/R544A/R548A) (human) (UniProt Q8IWY9); assay: pull-down; Strep-Tactin pulldown of transiently transfected ST-CDAN1 variants from Flp-In 293 T-REx lysates; endogenous ASF1A, ASF1B and CDIN1 detected by immunoblotting; IP buffer with 1% Triton X-100, 1 hr at 4 °C
# T1 sequence: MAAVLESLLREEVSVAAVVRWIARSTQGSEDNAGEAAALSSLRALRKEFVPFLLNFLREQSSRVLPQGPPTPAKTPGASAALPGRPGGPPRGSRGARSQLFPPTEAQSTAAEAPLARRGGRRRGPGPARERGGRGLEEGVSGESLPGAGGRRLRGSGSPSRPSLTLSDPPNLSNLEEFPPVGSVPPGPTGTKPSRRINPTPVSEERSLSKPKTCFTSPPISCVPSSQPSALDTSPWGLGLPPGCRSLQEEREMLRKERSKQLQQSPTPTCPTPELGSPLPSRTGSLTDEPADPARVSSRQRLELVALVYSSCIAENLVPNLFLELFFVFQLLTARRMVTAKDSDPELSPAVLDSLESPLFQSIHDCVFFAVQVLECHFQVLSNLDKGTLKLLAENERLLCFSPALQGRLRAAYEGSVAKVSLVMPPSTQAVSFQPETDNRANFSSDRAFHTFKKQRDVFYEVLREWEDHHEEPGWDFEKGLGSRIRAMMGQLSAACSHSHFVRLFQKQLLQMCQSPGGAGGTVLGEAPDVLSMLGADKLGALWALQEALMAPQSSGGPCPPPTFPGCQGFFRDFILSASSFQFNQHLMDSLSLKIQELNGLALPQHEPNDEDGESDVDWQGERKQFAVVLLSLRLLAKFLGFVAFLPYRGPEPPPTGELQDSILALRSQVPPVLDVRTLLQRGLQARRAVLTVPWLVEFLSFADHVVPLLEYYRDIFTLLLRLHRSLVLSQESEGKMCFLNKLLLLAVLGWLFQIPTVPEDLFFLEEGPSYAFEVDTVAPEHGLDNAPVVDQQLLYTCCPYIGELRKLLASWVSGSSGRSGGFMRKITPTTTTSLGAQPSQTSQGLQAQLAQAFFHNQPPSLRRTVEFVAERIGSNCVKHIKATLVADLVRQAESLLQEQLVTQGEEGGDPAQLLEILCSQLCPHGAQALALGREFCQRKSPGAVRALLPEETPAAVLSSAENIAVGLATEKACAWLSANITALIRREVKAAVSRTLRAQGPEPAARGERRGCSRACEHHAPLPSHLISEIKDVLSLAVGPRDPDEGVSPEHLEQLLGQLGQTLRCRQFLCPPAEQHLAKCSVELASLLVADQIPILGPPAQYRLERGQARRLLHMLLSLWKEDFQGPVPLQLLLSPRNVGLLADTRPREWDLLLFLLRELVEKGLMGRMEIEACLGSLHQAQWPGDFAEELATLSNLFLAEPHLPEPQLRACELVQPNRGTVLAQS
# [2] = target: T2, Strep-CDAN1 HMHA1* HMHA2* (both H3 mimic helices mutated) (human) (UniProt Q8IWY9); assay: as above
# T2 sequence: T1 sequence with R251A, R255A, R258A
Substance,binding [1],binding [2]
endogenous ASF1A (from UniProt Q9Y294 1-204),binds,no binding
endogenous ASF1B (from UniProt Q9NVP2 1-202),no binding,no binding
